Out of some 150,000 compounds screened, about 540 (0.36%) showed an effect of 50% or more. Some of the results follow.
Tested on: Plasmodium falciparum
Test: Primary screen in NF54 nanoGlo assay, in single point, at 2uM, 72h; a lower Z score goes with more inhibition
Type: functional, Erythrocyte
Settings: timepoint 72 hour

| SMILES | % Inhibition [%] | Z score |
| --- | --- | --- |
| O=C(CCNCC(F)(F)F)N1CCC[C@H](n2cccn2)C1 | -1 | 0.25 |
| CC1(C(=O)N2CCC3(CCOC3)C2)CCOC1 (configuration not stated) | 0 | -0.05 |
| COc1c(Cl)cccc1CNC(=O)C1(c2cccnc2)CCCC1 | -3 | 0.6 |
| COC(=O)c1ccc(N(CCOC(C)(C)C)S(C)(=O)=O)cc1 | 0 | 0.04 |
| CC(=O)c1cccc(CNC(=O)[C@H]2CCCOC2)c1 | -1 | 0.13 |
| Cc1nc(C)c(C(=O)N2CCCN(C)c3cc(F)ccc32)o1 | 0 | 0 |
| NC(=O)C1CC(C(=O)NCC2COCCO2)=NN1c1ccccc1 (configuration not stated) | -6 | 1.15 |
| O=C(NCN1CCCCC1)c1cccnc1 | 0 | 0.05 |
| Cc1noc(C2CCN(c3nnc(-c4c[nH]c5ccccc45)n3C)CC2)n1 | -5 | 0.88 |
| CC(NC(=O)CN1CCCC1c1cnn(C)c1)c1ccco1 (configuration not stated) | -1 | 0.08 |
| Cc1cccnc1N1CCC(N2CCC[C@H](CO)C2)CC1 | -9 | 1.82 |
| COCCOC[C@]1(CNC(=O)C2CCCC2)C[C@@H](O)[C@@H](O)C1 | 17 | -1.97 |
| CCS(=O)(=O)c1ccc(N2CCN(CC(C)C)C(=O)C2)cc1 | -7 | 0.68 |
| CN(Cc1cccnc1)C[C@H]1CCCN(C(=O)Cc2ccc(Cl)s2)C1 | -1 | 0.05 |
| CCN(CC(C)(C)O)C(=O)N[C@@H](C)Cc1ccsc1 | 2 | -0.41 |
| CCc1ccnc(CNc2ncc(Br)c(OC(C)(C)C)n2)c1 | -7 | 1.06 |
| O=C(NCCOCCn1ccnc1)Nc1nccs1 | 2 | -0.34 |
| COc1ccc(-c2nc(-c3nnn(Cc4ccc(F)cc4)c3C)no2)c(OC)c1 | -16 | 3.23 |
| Cc1nnc(O)nc1NCCc1ccccc1 | 5 | -0.99 |
| CCC(C)N(C(C)CC)S(=O)(=O)c1ccccc1 (configuration not stated) | -11 | 1.35 |
| Cc1cccc(Cl)c1NC(=O)Cn1c(=O)n(Cc2cccc(Cl)c2)c(=O)c2ccccc21 | 34 | -3.83 |
| CCC(=O)N1CC[C@H](C(=O)NS(=O)(=O)CC(C)C)C1 | 2 | -0.33 |

| SMILES | % Inhibition [%] | Z score |
| --- | --- | --- |
| CC(C)Cn1cncc1Cn1ccnc1[C@H]1CCOC(C)(C)C1 | 7 | -0.93 |
| CCOc1cc(CNC(=O)N2CC(O)C2)ccc1OC | 4 | -0.75 |
| CCCn1cc(NC(=O)N[C@H]2CCCC[C@@H]2O)cn1 | -5 | 0.79 |
| Cc1nnccc1NC(=O)NCCc1cccc2c1OCCO2 | -5 | 0.88 |
| Cc1ccc2c(c1)c1c(n2S(=O)(=O)c2ccc(C(C)(C)C)cc2)CCCN(C)C1 | 67 | -13.88 |
| Cc1nn(C)cc1-c1cc(-c2cn(C)nc2C)n(-c2ccc(Cl)c(Cl)c2)n1 | 32 | -3.57 |
| Cc1cccc(C2(C(=O)N3CCCN(C(N)=O)CC3)CCCC2)c1 | -3 | 0.49 |
| CCn1cnnc1NC(=O)[C@H](C)n1nnnc1C(C)(C)C | -8 | 1.51 |
| Cc1oc2ncnc(NCc3n[nH]c(=O)[nH]3)c2c1C | -13 | 1.85 |
| Cc1ccc([C@]2(C)NC(=O)N(Cc3ccccc3C)C2=O)o1 | -2 | 0.38 |
| Cn1cccc1[C@@H](O)CCNC(=O)c1ccc(Br)o1 | 0 | 0.04 |
| COc1ccc(NC(=O)N2CC[C@@](F)(C(=O)NCc3ccccc3)C2)cc1 | -15 | 2.01 |
| Cc1[nH]nc(-c2ccsc2)c1NC(=O)c1ccc(F)cc1F | 6 | -0.72 |
| c1ccc(-c2ccc(OCc3cn4cccnc4n3)cc2)cc1 | -11 | 1.54 |
| CCc1cc(N2CCC(CCn3ccnc3C)CC2)n2nccc2n1 | -2 | 0.21 |
| COc1cc(NC(=O)[C@@H]2C[C@H]3CC[C@@H]2O3)ccn1 | 5 | -0.54 |
| COc1ccc(Cn2cc(F)ccc2=O)cn1 | 1 | -0.16 |
| COC(=O)c1cc(OCC(=O)Nc2ccc(OC)c(Cl)c2)c2cc(C)ccc2n1 | -10 | 1.79 |
| CN1CCOCC1C(=O)NCC(NC(=O)C1COCCN1C)C1CCCCC1 (configuration not stated) | 26 | -2.96 |
| CN(C)Cc1nc(C(=O)N[C@@H]2[C@@H]3CCO[C@@H]3[C@H]2N(C)C)cs1 | -15 | 2.26 |
| C[C@H](NCc1cn(C)c(=O)n(C)c1=O)c1ccc(F)c(F)c1 | 6 | -1.18 |
| CC(C)[C@@H](c1ccc(F)cc1)N(C)CCCC1(C#N)CCOCC1 | -2 | 0.29 |

| SMILES | % Inhibition [%] | Z score |
| --- | --- | --- |
| CC(=O)Nc1ccc(-c2cc(C(=O)N[C@H](c3cccs3)C(C)C)c3ccccc3n2)cc1 | -8 | 1.26 |
| C[C@H](NS(=O)(=O)N1CCCCC1)c1ccc(S(C)(=O)=O)cc1 | -6 | 0.81 |
| Cc1ccc(-c2n[nH]c(C)c2NC(=O)CC(C)C)c(C)c1 | -15 | 2.05 |
| CCC1(CC)CN(C(=O)c2n[nH]nc2C)CCO1 | -10 | 0.94 |
| CN1CCN(c2nc3c(c(N(C)C)n2)CN(C(=O)Cc2ccccc2)CC3)CC1 | 10 | -1.25 |
| Cc1cccc(NC(=O)[C@H]2CCCN(C(=O)Cc3cccc4ccccc34)C2)c1C | -5 | 0.85 |
| CCOCCN1CCC[C@H](c2nnc[nH]2)C1 | -2 | 0.19 |
| CC(C)c1cc(C(=O)N2CCCCC[C@H]2c2noc(-c3cnn(C)c3)n2)nn1C | -13 | 1.48 |
| CN1CCN(c2ncnc(-c3ccc(F)c(F)c3)c2N)CC1 | -12 | 1.6 |
| CCc1nnc(C(=O)Nc2ccc(C(=O)N3CCOCC3)cc2)s1 | -10 | 1.12 |
| CCOC1CC(NC(=O)c2cnc(-c3cnn(C)c3)s2)C12CCCC2 (configuration not stated) | -5 | 0.93 |
| COCCn1c(C)cc(=O)c(C(=O)NCCCn2ccnc2)c1CC1CCCC1 | -6 | 0.77 |
| CC[C@H]1CN(c2ncc(C(C)(C)C(=O)O)c(N3CCOCC3)n2)CCN1 | 4 | -0.49 |
| O=C(Cn1[nH]c2ccccc2c1=O)N1CCC[C@H](CO)C1 | -2 | 0.34 |
| COc1cc(-c2cn(Cc3cc(C(C)(C)C)n[nH]3)nn2)cc2c1OCO2 | -4 | 0.67 |
| Cc1cnc(OC2CCN(Cc3cnc4ccnn4c3)CC2)nc1 | -6 | 0.95 |
| Cc1ccc(-c2cn3c(O)cc(C)nc3n2)cc1 | 4 | -0.44 |
| Cc1cc(C)n2ncc(CN3CCc4[nH]nc(C(C)C)c4C3)c2n1 | -4 | 0.8 |
| O=C1O[C@H](C(=O)Nc2ccc(-n3cncn3)nc2)Cc2ccccc21 | -15 | 2.77 |
| COc1ccc(Cl)cc1S(=O)(=O)N(CCC(=O)N1CCNCC1)Cc1ccc(F)cc1 | 3 | -0.57 |
| Cc1cc(-c2nc(-c3ccc(N4CCCCC4)cc3)no2)ccn1 | 10 | -1.32 |
| CCO[C@@]1(C)C[C@H]1NC(=O)N[C@H]1C[C@H]1C(F)F | -9 | 1.68 |

| SMILES | % Inhibition [%] | Z score |
| --- | --- | --- |
| CC(=O)N1CCC[C@H](c2[nH]ccc2C(=O)NCc2cc(C)nn2C)C1 | -21 | 2.42 |
| CC(=O)Nc1nccc2c1[nH]c(=O)n2C | -15 | 1.92 |
| Cc1ccc(CN(C)C)cc1NC(=O)CCCc1nccs1 | -11 | 1.44 |
| COC1CCN(C(=O)N2CCO[C@@H](COCC3CC3)C2)CC1 | 15 | -1.7 |
| CCc1nccc(CN2CCC(C)(C#N)CC2)n1 | 6 | -1.2 |
| COc1ccc2c(c1)[C@H](C(=O)NCCN1CC=C(C)CC1)CCC2 | 2 | -0.32 |
| C[C@@H](CC#N)N(C)C(=O)C(=O)Nc1cc(Br)ccc1F | -6 | 0.78 |
| Cc1nn(C(C)C)c(C)c1CN(C)C(=O)c1ccc([C@H]2CCCNC2)cc1 | -9 | 1.22 |
| CCN1CCN(c2c(CN(CC(C)C)C(=O)C3CCCC3)c(C)nn2-c2cccc(F)c2)CC1 | 5 | -0.6 |
| C[C@@H](Cc1cccc(Cl)c1)C(=O)NCCC(=O)O | 3 | -0.63 |
| C1CNC[C@@H](Oc2nc(C3CC3)nc3c2CCOCC3)C1 | -7 | 1.15 |
| CCOc1nnc(CN2CCC[C@H](c3cc(C(N)=O)[nH]n3)C2)s1 | -11 | 1.63 |
| Cc1cc(C)c(CN2CCO[C@@H](CCN(C)C)C2)c(-n2cccn2)c1 | -9 | 1.31 |
| O=C(Nc1cccc2ccccc12)[C@H]1CCCN(c2c(-c3ccccc3)c3cc(Cl)ccc3[nH]c2=O)C1 | -33 | 3.9 |
| Cc1n[nH]c(C)c1Cn1cnc(-c2ccccc2)c1-c1ccco1 | -23 | 4.39 |
| Cn1cc(C(=O)N2CCN(Cc3ccoc3)C[C@H](O)C2)cn1 | -7 | 0.72 |
| Cc1ccc(-n2c(=O)c3sccc3n(CC(=O)NCCc3ccc(Cl)cc3)c2=O)c(C)c1 | -2 | 0.38 |
| Cc1nc([C@H](C)NC(=O)c2cccn(C)c2=O)cs1 | 2 | -0.24 |
| C[C@H](NCc1cnc2n1CCCC2)c1ccc(-n2cnnn2)cc1 | 5 | -0.87 |
| CCC(NC(=O)c1c[nH]c2cc(C)nn2c1=O)[C@H]1C[C@@H](O)C1 (some centres not stated) | -8 | 0.79 |
